Where “and” joins values, the source holds several entries; their conditions need not be identical. Equal values may be shown once. Among all 350,000 compounds or so, about 260 (0.074%) were called active. The inconclusive results got no clear call from the source; some entries with a clear call stand among them for comparison. The call rests on the fitted dose curve; in most records, active means well fitted inhibition curve with a large enough effect; inconclusive means small, poorly fitted or top-dose-only effect; inactive means no such curve, though single readings can be large or run the other way. Potencies of inconclusive entries are doubtful fits and often do not repeat.
Molecular target: Ferritin light chain (Equus caballus) (UniProt P02791)
UniProt P02791, sequence (P02791 whole entry, looked up): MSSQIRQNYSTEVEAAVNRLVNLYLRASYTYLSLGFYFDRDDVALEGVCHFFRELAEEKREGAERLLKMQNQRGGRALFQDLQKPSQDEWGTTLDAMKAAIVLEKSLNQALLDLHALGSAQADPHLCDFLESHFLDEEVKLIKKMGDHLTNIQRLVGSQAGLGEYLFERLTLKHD
Assay: qHTS Assay for Identification of Novel General Anesthetics; further: nearly all actives have a fitted effect of over 20% in size
Details: apoferritin/1-aminoanthracene competitive binding, fluorescence; series mostly up to 77.5 µM
Summary of the method: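 Probe: 1-aminoanthracene (50% saturated, PBS). Protein: horse-spleen apoferritin, 10 uM. Incubation: 10 min, room temperature. Detection: 380 nm excitation, 535 nm emission. Analysis: normalized response, four-parameter Hill.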
Potency means the concentration at half of the fitted maximal effect; tags describe the fitted curve by direction and shape.

Row | Compound | Potency
1 | COc1ccccc1CC(=O)Nc1ccccc1O | inconclusive: 39.8 µM [inhibitor, partial curve]
2 | O=C(NN1C(=O)c2ccccc2NC1c1ccc([N+](=O)[O-])o1)c1ccc([N+](=O)[O-])cc1 (stereo unspecified) | inactive
3 | Cc1ccccc1NC(=O)CSc1nc(N)c(C#N)c(-c2cccs2)c1C#N | inactive
4 | Cc1ccc(CSCCC(=O)NCCC2=CCCCC2)cc1 | inconclusive: 39.8 µM [inhibitor, single point]
5 | Cc1cccc(CN2CCOCCS2(=O)=O)c1 | inconclusive: 31.6 µM [inhibitor, partial curve]
6 | Cc1cc(N)ccc1N1CCCC1 | inconclusive: 35.5 µM [inhibitor, single point]
7 | Cc1ccc(O)c(NC(=O)c2noc3c2CCCCC3)c1 | inconclusive: 20 µM [inhibitor, partial curve] and inconclusive: 25.1 µM [inhibitor, partial curve]
8 | CC1(C)CCSC(/C=C/c2ccccc2)=N1 | inconclusive: 39.8 µM [inhibitor, partial curve]
9 | O=C(O)c1cc(Cl)c2c(c1)[C@@H]1C=CC[C@@H]1[C@H](c1ccc(S(=O)(=O)N3CCOCC3)cc1)N2 | inactive
10 | COC(=O)c1c(NC(=O)C2CC(=O)NN2Cc2ccccc2)sc(C)c1C (stereo unspecified) | inconclusive: 17.8 µM [inhibitor, partial curve]
11 | Cc1ccc(C)c(CN2C(=O)c3ccccc3S(=O)(=O)c3ccc(C(=O)N4CCCC4)cc32)c1 | inconclusive: 7.94 µM [inhibitor, partial curve]
12 | O=C(NNc1c(Cl)cccc1Cl)c1cccs1 | inconclusive: 39.8 µM [inhibitor, single point]
13 | CN1/C(=C\C(=O)COC(=O)c2ccc([N+](=O)[O-])o2)C(C)(C)c2ccccc21 | inconclusive: 25.1 µM [inhibitor, partial curve]
14 | O=C(N/N=C/c1cccs1)c1cc(-c2ccc(Cl)s2)[nH]n1 | inconclusive: 20 µM [inhibitor, partial curve]
15 | NS(=O)(=O)c1cc(C(=O)N2CCc3ccccc32)c(Cl)cc1Cl | inconclusive: 35.5 µM [inhibitor, single point]
16 | Cc1ccc(NS(=O)(=O)c2cccc3cccnc23)c(Br)c1 | inconclusive: 17.8 µM [inhibitor, partial curve]
17 | CCCSc1nnc(NC(=O)c2cc(=O)c3ccccc3o2)s1 | inactive
18 | O=[N+]([O-])c1ccc(/C=C/C2=NN(c3ccccc3)C(c3ccco3)C2)o1 (stereo unspecified) | inactive
19 | CC12CCC(C/C1=N\N=C1\NC(=O)/C(=C\c3cccc(Br)c3)S1)C2(C)C (stereo unspecified) | inconclusive: 5.62 µM [inhibitor, single point]
20 | O=C(CCNC(=O)c1ccccc1Cl)Nc1nc2ccccc2s1 | inactive
21 | O=c1[nH]c2cc(Cl)ccc2c(O)c1-c1cccc(Oc2ccccc2)c1 | inactive
22 | COc1ccccc1N1CCN(/N=C/C=C\c2ccccc2[N+](=O)[O-])CC1 | inconclusive: 56.2 µM [inhibitor, single point]

Row | Compound | Potency
23 | COc1ccccc1NS(=O)(=O)c1ccc(O)c(C(=O)OCC(=O)N2c3ccccc3CC2C)c1 (stereo unspecified) | inconclusive: 8.91 µM [inhibitor, partial curve]
24 | CCOc1ccc(OCC)c(-c2c(=O)n(OCc3ccc(C(C)(C)C)cc3)c3ccccc3[n+]2[O-])c1 | inconclusive: 10 µM [inhibitor, full curve, poor fit]
25 | Cc1ccc(Nc2nc(-c3ccc(O)c(O)c3)cs2)nc1 | inconclusive: 20 µM [inhibitor, partial curve]
26 | O=C1C(=O)N(c2ccccn2)C(c2ccc(F)cc2)/C1=C(/O)c1ccc(Br)cc1 (stereo unspecified) | inactive
27 | CCOc1ccc(C(=O)N2CC(=O)Nc3ccc(F)cc3C2c2ccc(F)cc2)cc1 (stereo unspecified) | inconclusive: 11.2 µM [inhibitor, partial curve]
28 | CC(C)Cn1cc(C(=O)N2CCN(c3ccccn3)CC2)c2c3ccccc3n(C)c2c1=O | inactive
29 | N#Cc1c(N2C(=O)C3C4C=CC(C4)C3C2=O)sc2c1CCC2 (stereo unspecified) | inconclusive: 17.8 µM [inhibitor, partial curve]
30 | O=[N+]([O-])c1ccccc1NCc1ccccc1Cl | inconclusive: 11.2 µM [inhibitor, partial curve]
31 | CCn1ncc(Cl)c1C(=O)NC(=S)Nc1ccccc1Br | inconclusive: 25.1 µM [inhibitor, partial curve]
32 | CC(CCc1ccccc1)NC(=O)CSc1n[nH]c(-c2ccccc2Cl)n1 (stereo unspecified) | inconclusive: 50.1 µM [inhibitor, single point]
33 | Cc1cc(C(=O)OCC(=O)Nc2ccc(S(=O)(=O)N3CCOCC3)cc2)c(C)o1 | inconclusive: 10 µM [inhibitor, partial curve]
34 | O=C(NCc1ccccc1)c1onc(CSc2ccc(F)cc2)c1C(=O)NCCCN1CCOCC1 | inconclusive: 31.6 µM [inhibitor, partial curve]
35 | O=S(=O)(NCC(c1ccco1)S(=O)(=O)c1cccs1)c1ccccc1 (stereo unspecified) | inactive
36 | O=C(/C=C/c1ccco1)NC(=S)Nc1ccc(N2CCOCC2)c(Cl)c1 | inconclusive: 35.5 µM [inhibitor, partial curve]
37 | CC(C)(C)c1ccc(CN2C(=O)c3ccccc3S2(=O)=O)cc1 | inconclusive: 35.5 µM [inhibitor, single point]
38 | CCCc1nnc(NC(=O)CSc2nnc3c4ccccc4n(CC)c3n2)s1 | inconclusive: 17.8 µM [inhibitor, partial curve]
39 | CCCC(=O)NC(=S)Nc1cccc(NC(=O)c2ccccc2Cl)c1 | inactive
40 | COc1ccc2c(C)cc(SCC(=O)Nc3c(C)n(C)n(-c4ccccc4)c3=O)nc2c1 | inactive
41 | COc1ccc(NC(=O)CC2C(=O)N(CCc3ccccc3)C(=S)N2Cc2cccnc2)cc1 (stereo unspecified) | inconclusive: 14.1 µM [inhibitor, partial curve]
42 | Brc1ccc(-c2nn3c(-c4ccco4)nnc3s2)o1 | inconclusive: 39.8 µM [inhibitor, single point]
43 | CC(C)NC(=O)c1cc(C(=O)c2cc(Cl)ccc2O)coc1=N | inconclusive: 31.6 µM [inhibitor, single point]
44 | O=c1c2ccc([N+](=O)[O-])cc2ncn1CCOc1ccccc1 | inconclusive: 20 µM [inhibitor, partial curve]

Row | Compound | Potency
45 | CN(C)c1ccc(-c2nc3ccc(Cl)cn3c2Nc2ccc3c(c2)OCCO3)cc1 | inconclusive: 50.1 µM [inhibitor, single point]
46 | CCOC(=O)C1=C(Cc2ccc(C)cc2)C(=O)c2ccccc2C1=O | inconclusive: 50.1 µM [inhibitor, single point]
47 | COc1ccc(Oc2nnc(C)c3ccccc23)cc1 | inconclusive: 31.6 µM [inhibitor, single point]
48 | CCOC(=O)c1ccc(NC(=O)c2cc(=O)c3ccc(C)c(C)c3o2)cc1 | inactive
49 | CC(=O)Nc1cccc(OCC(=O)Nc2sccc2C(N)=O)c1 | inactive
50 | Nc1cc2c(cc1C(=O)c1ccc(Cl)cc1)OCCO2 | inconclusive: 31.6 µM [inhibitor, single point]
51 | CCSC(=S)c1c(C)[nH]n(-c2ccccc2)c1=O | inactive
52 | CCC(C)[C@H](NC(=O)N1CCN(c2cccc(C(F)(F)F)c2)CC1)C(=O)OC (stereo partly specified) | inconclusive: 35.5 µM [inhibitor, partial curve]
53 | COc1ccc(/C=C/C(=O)c2ccccc2)cc1COc1ccccc1F | inconclusive: 56.2 µM [inhibitor, single point]
54 | C=C(C)C1CC=C(C)/C(=N/NC(=O)CCCNc2cccc(C)c2)C1 (stereo unspecified) | inconclusive: 22.4 µM [inhibitor, partial curve]
55 | CSc1cccc(Nc2cc(C(=O)NC3CCCCC3)c3ccccc3n2)c1 | inactive
56 | Cc1ccc(C(=O)N(CC(=O)NC2CCCC2)c2ccccc2Cl)s1 | inconclusive: 56.2 µM [inhibitor, single point]
57 | Cc1ccccc1Nc1nc(N)nc(COC(=O)/C=C/c2ccco2)n1 | inconclusive: 39.8 µM [inhibitor, single point]
58 | C/C(CC(=O)Nc1ccc2c(c1)OCCO2)=N\NC(=O)COc1cccc(C)c1 | inconclusive: 35.5 µM [inhibitor, single point]
59 | Cc1cc(=O)n(Cc2ccc(OC(C)C)cc2)c(=S)[nH]1 | inconclusive: 15.8 µM [inhibitor, partial curve]
60 | COc1ccc([N+](=O)[O-])cc1N(CC(O)CN(CC(C)C)CC(C)C)S(=O)(=O)c1ccc(C)cc1 (stereo unspecified) | inconclusive: 7.94 µM [inhibitor, partial curve]
61 | CCOC(=O)c1c(-c2ccc(C)o2)csc1NC(=O)CN(C)CC(=O)Nc1ccc(C)cc1 | inconclusive: 31.6 µM [inhibitor, partial curve]
62 | COc1ccc(Cl)cc1Nc1nc(N)nc(C(F)(F)F)n1 | inconclusive: 44.7 µM [inhibitor, single point]
63 | COC(=O)c1sc2ccccc2c1-n1cccc1C(=O)C(=O)Nc1ccc(Cl)cc1 | inconclusive: 15.8 µM [inhibitor, partial curve]
64 | CCOC(=O)NC(N(O)c1cccc(Cl)c1)C(Cl)(Cl)Cl (stereo unspecified) | inconclusive: 50.1 µM [inhibitor, single point]
65 | CC(=O)Nc1ccc(OCC(O)CN2CCN(c3cc(Cl)ccc3C)CC2)cc1 (stereo unspecified) | inconclusive: 22.4 µM [inhibitor, partial curve]
66 | Nc1nonc1-c1nc2ccccc2n1CC(=O)Nc1cccc(C(F)(F)F)c1 | inconclusive: 0.891 µM [inhibitor, full curve, poor fit]

From PubChem BioAssay AID485281 (National Center for Advancing Translational Sciences (NCATS), 2010)
